The list shows a part of the results.

The assay deals with PfAP2-HC AP2 domain (GST-tagged). The assay can be described thus: gcPBM binding intensity (ln(normalized median fluorescence intensity)); higher = stronger DNA binding. The essentials: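 After 1 h on an Agilent 4 × 180k array of primer-extended double-stranded 36-bp intergenic genomic probes and negative controls, bound GST-tagged P. falciparum DNA-binding domains were detected with Alexa488 anti-GST antibody and scanned at 488 nm. The domains had been expressed in E. coli, and binding took place in 1× PBS with 1% milk, 0.2 mg/ml BSA, 0.5% salmon testes DNA and 0.03% Triton X-100. Binding intensity is the highest Masliner-normalised natural-log median intensity across replicate spots of either probe orientation.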
Regarding CTTTTAGAATAATCAGTGCAAAAAAAAAAAAAAAAA, the “gcPBM binding intensity (ln)” value was determined as 9.09.

Consider “GATAATACATAAATTTATAAGTGGAAGAATAAATAA [CACACA_negctrl_site698]”, for which the “gcPBM binding intensity (ln)” value was 9.72. “GAAATATTACAAAGTACATGCAACGAAAATTTCAGT [TGCATGCA_site608]”: the “gcPBM binding intensity (ln)” value was found to be 9.77. To “AAAAAAAAAAAAACTTGTACATGTGATATTATCTAT [XGTACX_site6169]” belongs 9.61; to “ATTTAATACATACATTCACACACACTAATTGTATAT [CACACA_site9361]”, 10.1; to “TTAAATGTTCTATATACATGCAATGATATGTTTCTG [TGCATGCA_site317]”, 9.43.

Turning to “TCAAAGTAGGCTTATATGCACACTTTGAAATATTAT [CACACA_site1920]”, the “gcPBM binding intensity (ln)” value was 9.49. Take “TAGTTAATATGAAAAAGTACACGTTTCAGTGAAAGT [XGTACX_site7402]”: the “gcPBM binding intensity (ln)” value was 9.8. Next, “TTTAAAATAAATATTACACACAAAATATTAAAAAGC [CACACA_site2129]”: 9.96. In the case of “ATATATACATATGGGTGTACATATGCACATATATAT [XGTACX_site8437]”, the “gcPBM binding intensity (ln)” value was found to be 9.84. As to “ACAAAAAAAAACGTGGTGCATTAATAATATTGTATA [GTGCAC_site9469]”, the “gcPBM binding intensity (ln)” value was found to be 9.87. On to “ATAACACAAAAAGGGGGTACAATAAAAAAAAAAAAA [XGTACX_site1652]”, for which the “gcPBM binding intensity (ln)” value turned out to be 9.42.

In the case of “AATACCTATAATACAACACACAAGTAATATAAACCT [CACACA_site7661]”, the “gcPBM binding intensity (ln)” value stood at 10.1.

For the sequence “TATTTATATAGGTATACACACATACAAATATGTAAA [CACACA_site7705]”, the “gcPBM binding intensity (ln)” value was 9.71. As for “TCATTATATACAATATGTACATATATGTAATAAACA [XGTACX_site4611]”, the “gcPBM binding intensity (ln)” value is 9.47. To “AGAAAGAAAGAATACACACACACATATATATATATC [CACACA_site3744]” belongs 11.5.

As to “AAAGAATTCATTATTTGTACTTAAATAAATAAATAA [XGTACX_site5932]”, the “gcPBM binding intensity (ln)” value came to 9.38. As to “AAAGGATATGCTTCATATATATATTGTTATATATGT [CACACA_negctrl_site1672]”, the “gcPBM binding intensity (ln)” value is 9.58. To “AGCACACGCAGACACACACACACACGCACACGCACA [CACACA_site6306]” belongs 11.6; to “AAATTAATATAAATATGTACATAAATAATAAAATAT [XGTACX_site6131]”, 10. Next, ATTTTTCAAACTTTAGTGCAATGAAAGAAAGAAAAA: 9.5; “GGAGGTTGTTATAAAAGTACAAAAAGTTGCAATTTT [XGTACX_site7351]”: 9.49; “GTTTTCCTTCCCTTTCCCCCTCAAAAAAAGGGAACA [TGCATGCA_negctrl_site436]”: 9.4. To “AAGGAATAAAGAAGTTGTACATAATTTGTATCATCC [XGTACX_site3891]” belongs 9.76; to “ATAAGAAGGAACATAAATATATCATAAAAAAAAAAA [GTGCAC_negctrl_site169]”, 9.52; to “TAAAATTTTTTATTCACACAAATATAGTTATATATA [CACACA_site5348]”, 9.24. As for “ATATATTTTTTTTCTTCACACACATGAATTATATAT [CACACA_site9053]”, the “gcPBM binding intensity (ln)” value was 10.3. Next, “ATATATATATATATATGTACATATTATATATGAACG [XGTACX_site1585]”: 9.71; “AATAATAGAAAAAGGTGTACTTATAAACATATACAC [XGTACX_site6921]”: 9.73. Next, “GTAATTATTATTAATAGTACACACTATGGCATTTCA [XGTACX_site5192]”: 9.72; “TATATTAATAGACACACACACATATTTATATTTATA [CACACA_site6859]”: 11.1; “TATATTTAGTAAAAAGGTACCATTCTTATTTATATT [CACACA_negctrl_site1165]”: 9.58. To “TACTGTGATAGCACCACACACGCAAAAGTGAGTATA [CACACA_site1109]” belongs 9.71; to “TTTCAGCCAAACGATAAACTACGACACTTGAACGAA [CACACA_negctrl_site1747]”, 9.45. As for “TAAGGCCCTTTTCATCGTACAGTAAAATATAAATAA [XGTACX_site1278]”, the “gcPBM binding intensity (ln)” value came to 9.3. With “CATACTGTGATAGCACCACACACGCAAAAGAGGGTA [CACACA_site8285]”, the “gcPBM binding intensity (ln)” value was found to be 10. Next, “CAAATACATGTGTAAAGTACATATTAATAAGTCTTT [XGTACX_site6342]”: 9.76. To “GAAAATTCTTAAGGCACACACATATATAATATATAC [CACACA_site569]” belongs 10.4; to “AATTTAACCCATTTTATAATTATTACCACTATATAT [TGCATGCA_negctrl_site452]”, 9.79. Next, “ATTTTTTTTTTTATGTGTACATATATTTTTTTAATT [XGTACX_site7921]”: 9.83; “AAGAAAAAATAAACATGTACATAAATATATATATAT [XGTACX_site304]”: 10.1. With “ATTTAATTTATAAAAACACACACAGGTAAAAAGGTG [CACACA_site8306]”, the “gcPBM binding intensity (ln)” value came out at 10.6. Consider “TGCTACTTATAAATAGAACACACATAAGTGTATTTG [CACACA_site9253]”, for which the “gcPBM binding intensity (ln)” value was 9.71.

Regarding “AAGAAAAAAAAAAAAAAAAAAAAAAAAAAGGAAAAA [GTGCAC_negctrl_site174]”, the “gcPBM binding intensity (ln)” value stood at 9.29. To “AAAAAAAAAAAAAAAAAAAAAAAAAAATATATATAT [CACACA_negctrl_site271]” belongs 9.48; to “TAAGAAAAAAAATAATGTACATATGTATTTGAGAAA [XGTACX_site3569]”, 9.67; to “TATATATATATATATTGTACTAATTGTGCAAATGAG [XGTACX_site682]”, 9.63. “ATAAAGCCATACAATACACACATTTGACATGTCCGT [CACACA_site7523]”: the “gcPBM binding intensity (ln)” value came out at 9.81. Next, “ATACTTCAATCTATTTGTACATATTTTTTAAAACCA [XGTACX_site2328]”: 9.51; “GAAATTTTTAAATACAGTACACACATGGGTTTAAAT [XGTACX_site6124]”: 9.93. To “AATAATAAAAAATATACACACATATATAAATAAATA [CACACA_site6164]” belongs 9.95; to “ATAAATCAAAGGCACACACACAAAAAAAAAAAAAAA [CACACA_site160]”, 10.4. Next, “TGTTTTTTATATTACTGTACATGTTTTGGAATAATA [XGTACX_site4716]”: 9.61; “GCGGGTTTATCTTTCGCACACCTTACATTTTAGAAT [CACACA_site2015]”: 9.93. Consider “AGTTTTATGTAGTGTTGTACTTTATACAAATATATT [XGTACX_site614]”, for which the “gcPBM binding intensity (ln)” value was 9.9. Next, “ATATCACATTCCACGGTACACACTAAAAGAAAAATC [CACACA_site3611]”: 9.92; “TATTTTTGTATATATTTATTCTTATTTTACAGGAAA [TGCATGCA_negctrl_site472]”: 9.38; “AACAAAAATAGAAACACACATACATTGGTTTTCTTT [CACACA_site2534]”: 9.84.

As to “ACATTTAAGTTTAGCTGTACATATTCATCATAATTA [XGTACX_site37]”, the “gcPBM binding intensity (ln)” value worked out at 9.6. As to “TATTCCTTCTACAATTAAATAATTATAATAAATATA [GTGCAC_negctrl_site26]”, the “gcPBM binding intensity (ln)” value came to 9.15. Next, “GTATCATTAAATTATTGTACATATATATATATATAT [XGTACX_site8809]”: 9.84; “TTAATTAATAGACACACACACATATAAATATAGATT [CACACA_site7143]”: 10.2. Next, “AAAAAAAAATAATATTGTACACACATAAATTCTTTG [XGTACX_site4315]”: 9.78. Next, “GTGTATTTTCTGCGCACACACATGCAAAAAGAAATA [CACACA_site1148]”: 10.1; “GTTTTATTAAAAATGTGTACTTAATTATGAAAAAAA [XGTACX_site4689]”: 9.34. On to “TATATTTACATTGTAACACACATGAAATATATATAT [CACACA_site61]”, for which the “gcPBM binding intensity (ln)” value turned out to be 9.79.

With “TGTTGTAAATATGTTTGTACATAAATATATTATTTA [XGTACX_site5442]”, the “gcPBM binding intensity (ln)” value amounted to 9.67.

“TATTGTTTTGATTGATGTACATGTTTAAAATATATA [XGTACX_site8430]”: the “gcPBM binding intensity (ln)” value was 9.6.

Take “TAATCTATTTATATGTGTACCTATTTAGAAATGACA [XGTACX_site5709]”: the “gcPBM binding intensity (ln)” value stood at 9.39.

As for “AAAGTAAATTTAAGCACACACAACGAACTTTTATAC [CACACA_site7008]”, the “gcPBM binding intensity (ln)” value worked out at 10.3.

Regarding “AAGAAAAAATATAATAATAATAAAATATATATAATA [TGCATGCA_negctrl_site475]”, the “gcPBM binding intensity (ln)” value is 9.69. Next, “TTTGTTTTTCATAGTGCACACATAACCAAAAATAGT [CACACA_site9030]”: 9.72. To “CAAATACATAGACACACACACATATACATATTTATA [CACACA_site7610]” belongs 10.4; to “TTTATATTTAAATGCATGCACTTTCTATTTTTTTTT [GTGCAC_site9959]”, 9.99. Next, “TATTTGATAAATTATACACACACAATATATATAAAA [CACACA_site8625]”: 10.1. In the case of “GAATAAAGGAGAGGCACACATATATATATATATATA [CACACA_site2452]”, the “gcPBM binding intensity (ln)” value was 9.75.

With “GAGGATCATCAATTCACACACATAAAAATGAAGTTA [CACACA_site3078]”, the “gcPBM binding intensity (ln)” value came to 9.76. In the case of “TTCTTTTTAATGTCGGTGCAACTCCATAAAAACAAA [GTGCAC_site9488]”, the “gcPBM binding intensity (ln)” value was 9.33. Next, “CAATTTTCTAATGAAACATGCAAAATAAAATTTTAT [TGCATGCA_site13]”: 9.33; “CAACGATACAAAAAAGGTACACATATATATATATAT [XGTACX_site8688]”: 9.78; “TATATAAAATTCTATTGTACATGTTATACGAAAGAA [XGTACX_site5711]”: 9.63. To “TTAATATAATTAAAATGTACTTATTTGTAAACATTA [XGTACX_site6313]” belongs 9.39; to “TTTGTAGCACTTAAGAGTACAAAATGTATAAGATTT [XGTACX_site2321]”, 9.55. To “GACCATGTTAACAAAGCATGCATCTCTATATGTTTA [TGCATGCA_site358]” belongs 9.68; to “ACATAAAATAAATATACACACATATGTATATATCAT [CACACA_site7424]”, 9.9. Take “TTATTTTATAAATCGAAAACAAACAAAAAAAAGATA [XGTACX_negctrl_site178]”: the “gcPBM binding intensity (ln)” value was found to be 9.63.

Consider “TTGCTGTATTTATTTTGTACACATTTGGCATTATAT [XGTACX_site3408]”, for which the “gcPBM binding intensity (ln)” value is 9.89.

Consider “AAAAAAAAAAGAAAGAGTACTTTTTCAATACATATA [XGTACX_site2468]”, for which the “gcPBM binding intensity (ln)” value is 9.34.

Values taken from the supplement of paper PMC11417369.
